# Measured values published in PubChem BioAssay AID686978 (National Center for Advancing Translational Sciences (NCATS), 2013).
# Hit rate of the full screen: of about 420,000 compounds, about 64,000 (15%) were called active. Inconclusive means that the source gave no clear call. Such entries were picked first, then a sample of the others. Calls come from the whole dose curve; as a rule, active = well fitted inhibition curve with a large enough effect; inconclusive = small, poorly fitted or top-dose-only effect; inactive = flat fitted curve, though single readings scatter. Potencies of inconclusive entries are left out as doubtful fits.
# Assay: qHTS for Inhibitors of human tyrosyl-DNA phosphodiesterase 1 (TDP1): qHTS in cells in absence of CPT; note: nearly all actives have a fitted effect of over 55% in size
# Conditions: DT40 Tdp1-/- hTDP1 cells, no CPT, ATP luminescence, 48 h; activity change, negative = growth inhibition: at 46.2 µM (top of the series)
# Summary of the method: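 Growth kinetics read by CellTiter-Glo luminescence after ≥48 hr at 37 °C. Cells: DT40 Tdp1-/- stably carrying human TDP1, 400 per well, compound exposure in the absence of CPT (DMSO vehicle).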
# % is set by controls: 0 for no effect and ±100 for the full control effect; potency is the fitted concentration of half-maximal effect; tags give direction and shape of the fitted curve.
SMILES,Potency,"activity change, negative = growth inhibition"
Clc1cccc(Cl)c1Cn1cnc(=NCc2ccco2)c2[nH]cnc21,"inconclusive [inhibitor, partial curve]",
COc1ccc(NC(=O)C2CCCNC2)cc1OCC(C)C (stereo not given),"inconclusive [inhibitor, partial curve, poor fit]",
O=C(O)c1cc(N/N=C/c2ccc(-c3ccccc3)cc2)ccc1Cl,"inconclusive [inhibitor, single point]",
CCN1C(=O)/C(=C/N(C(C)=O)c2ccccc2)N(c2ccccc2)C1=S,"inconclusive [inhibitor, single point]",
CC(C)Cn1c(=O)c2sccc2n2c(CCCC(=O)NCCc3ccccc3)nnc12,"inconclusive [inhibitor, partial curve]",
O=C(c1ccc2c(=O)n(-c3ccccc3)c(=O)[nH]c2c1)N1CCCCC1,"inconclusive [inhibitor, partial curve]",
Cc1ccc(Cl)cc1NS(=O)(=O)Cc1ccccc1,,inactive: -5.26%
COc1ccc(C(=O)CSc2nc(-c3ccccn3)nc(C)c2Cl)cc1,"inconclusive [inhibitor, partial curve, poor fit]",
CC(C)C(=O)N1c2ncnn2C2(CCCCC2)[C@@H]2CCCC[C@@H]21,active: 10.3 µM,
CCOC(=O)N1CCN(C(=O)CSc2cc(C)nc3c(-c4ccccc4OC)c(C)nn23)CC1,active: 16.4 µM,
COc1cccc(NC(=O)Cn2c(=O)n(-c3ccc(Cl)cc3)c(=O)c3oc4ccccc4c32)c1,"inconclusive [inhibitor, partial curve]",
Fc1ccc(C2c3cccn3CCN2C(=S)Nc2cccc(Br)c2)cc1 (stereo not given),"inconclusive [inhibitor, single point]",
O=C1C(=O)N(c2nccs2)C(c2ccccc2F)/C1=C(\O)c1ccc2c(c1)OCCO2 (stereo not given),active: 16.4 µM,
N#Cc1c(CSCC(=O)O)cc(=O)n2c1[nH]c1ccccc12,,inactive: 21.8%
COc1cccc(-c2ccc3c(c2)C2CC3CCN2C(C)=O)c1 (stereo not given),"inconclusive [inhibitor, partial curve]",
CC(Oc1ccccc1)C(=O)NC1CCCCCCC1 (stereo not given),,inactive: -9.73%
O=C(CCNC(=O)C1CCN(S(=O)(=O)c2ccccc2)CC1)NCc1cccc(Cl)c1,"inconclusive [inhibitor, single point]",
Cc1nccn1CCC(=O)NC1CCCc2c1cnn2-c1ccc(C(C)(C)C)cc1 (stereo not given),"inconclusive [inhibitor, partial curve, poor fit]",

SMILES,Potency,"activity change, negative = growth inhibition"
COc1cc(OC)cc(C(=O)Oc2c(CN3CCOCC3)cc(Cl)c3cccnc23)c1,"inconclusive [inhibitor, single point]",
Cc1nnc(SCC(=O)NCC(=O)Nc2ccc(F)c(F)c2F)n1N,,inactive: -1.24%
COc1ccc(/C=C2\SC(=S)N(Cc3cccnc3)C2=O)cc1C,"inconclusive [inhibitor, single point]",
Cc1cc(NC(=O)Nc2ccc(Cl)cc2)n(-c2ccccc2)n1,,inactive: -14.9%
Cc1nnc(SCc2cc(=O)[nH]c(/N=C(\N)Nc3ccccc3Sc3ccccc3)n2)s1,,inactive: -3.42%
Cc1cccc(N2C(=O)c3cccc4c(N5CCCCC5)c([N+](=O)[O-])cc(c34)C2=O)c1C,"inconclusive [inhibitor, single point]",
Cc1ccn2c(Nc3ccc4c(c3)OCO4)c(-c3ccc(N(C)C)cc3)nc2c1,"inconclusive [inhibitor, single point]",
O=C(O)c1ccc(COc2ccccc2/C=C2\NC(=O)N(Cc3ccccc3)C2=O)cc1,"inconclusive [inhibitor, partial curve]",
COc1cccc(NC(=O)C2(C)CCN2C(=O)Cc2cccc3ccccc23)c1 (stereo not given),"inconclusive [inhibitor, single point]",
Cc1cc(C(=O)OCC(=O)Nc2cccc(S(=O)(=O)N(C)C)c2)c2ccccc2n1,"inconclusive [inhibitor, single point]",
O=c1c2cn[nH]c2nc(SCc2cccc(Br)c2)n1-c1ccc(Cl)cc1,"inconclusive [inhibitor, single point]",
CCn1nc(C)cc1C(=O)Sc1ccc(C)cc1,"inconclusive [inhibitor, partial curve]",
COc1ccccc1COC(=O)N/C=C/c1ccco1,,inactive: -11.4%
COc1ccc(-c2[nH]ncc2CN2CCC(C(=O)N3CCOCC3)CC2)c(F)c1,,inactive: -1.83%
CCCCOc1cccc(C(=O)Nc2ccc(NC(=O)c3ccco3)cc2)c1,,inactive: -27.9%
COc1ccccc1CNC(=O)NCc1noc2ccc(C)cc12,"inconclusive [inhibitor, single point]",
O=C(/C=C/c1ccncc1)c1cc(Cl)ccc1O,"inconclusive [inhibitor, partial curve, poor fit]",
